Reference: PubChem BioAssay AID485344 (National Center for Advancing Translational Sciences (NCATS), 2010)
In all, about 340,000 compounds went through this assay and about 6,900 (2%) were called active. Rule as the data show it: active = inhibition above about 30%; inactive = below that, where a call was filed. The list shows a part of the results, in another mix than the full data. Where no call is shown, the source filed none.

The molecules below were run against D(2) dopamine receptor (Homo sapiens) (UniProt P14416) (assay: HTS Assay for Allosteric Antagonists of the Human D2 Dopamine Receptor: Primary Screen for Antagonists). Details: HEK293 TREx D2 cells, calcium flux, dopamine EC80; at 10 µM; stronger effect = higher value.
UniProt P14416, sequence (P14416 whole entry, looked up): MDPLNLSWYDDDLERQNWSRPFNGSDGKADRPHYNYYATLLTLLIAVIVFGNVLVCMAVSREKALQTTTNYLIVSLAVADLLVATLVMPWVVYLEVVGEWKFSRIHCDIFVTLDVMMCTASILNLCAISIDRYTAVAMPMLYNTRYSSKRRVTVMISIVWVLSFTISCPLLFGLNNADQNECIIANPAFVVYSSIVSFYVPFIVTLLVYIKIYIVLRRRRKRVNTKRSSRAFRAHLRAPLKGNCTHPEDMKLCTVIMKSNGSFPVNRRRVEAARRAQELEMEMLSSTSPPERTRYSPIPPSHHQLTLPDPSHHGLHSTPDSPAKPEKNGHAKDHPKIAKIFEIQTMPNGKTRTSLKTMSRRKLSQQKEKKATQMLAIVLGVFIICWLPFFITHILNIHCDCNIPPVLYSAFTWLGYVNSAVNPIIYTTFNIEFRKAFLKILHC
Outline: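 Dopamine at EC80 is the agonist stimulus; test compounds precede it by 180 s. Calcium flux read kinetically in a force-coupled, inducible HEK293 T-REx D2 cell line.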
Also: 0% is about no effect.

| Compound | inhibition |
| --- | --- |
| CCOC(=O)c1ccc(NC(=O)c2cc3c(n(-c4ccc(C)cc4)c2=O)CC(C)(C)CC3=O)cc1 | -6.57% |
| Cc1ccc(CCNC(=O)c2ccc(CSCc3ccc(C)cc3)o2)cc1 | -1.26% |
| COc1ccc(-c2nc3scc(CCNS(=O)(=O)c4cccc(C(C)=O)c4)n3n2)cc1 | -5.77% |
| Cc1cc2ccccc2n1-c1ccc(C(=O)N2CCC(C(=O)NCc3ccc(F)cc3)CC2)s1 | 12.4% |
| COC(=O)c1c(SCC(=O)Nc2ccccc2OC)[nH]c2ccccc2c1=O | -6.47% |
| COc1ccc(Oc2nc3c(c(=O)n(Cc4ccccc4Cl)c(=O)n3C)n2C)cc1 | 3.87% |
| COc1ccc(CNC(=O)Cn2ccc3cc(S(=O)(=O)N4CCCCCC4)ccc32)c(OC)c1 | -4.51% |
| Cc1ccc(N2CC(NC(=O)/C=C\c3ccc4c(c3)OCO4)CC2=O)cc1 (centres undefined) | -9.21% |
| O=C(C1CC1)N1CCc2cc(Br)cc(S(=O)(=O)N3CCN(c4ccccc4F)CC3)c21 | 10.3% |
| COc1cccc(NC(=O)c2ccc(CNS(=O)(=O)c3ccc4c(c3)C(C)(C)C(=O)N4C)cc2)c1 | 23.6% |
| Cc1c(Cl)cccc1NC(=O)CSc1cc(-c2ccccc2)ncn1 | 13.6% |
| Cc1nc(SCC(=O)Nc2ccc(F)cc2)c(C#N)c(C)c1CC(=O)c1ccc(Br)cc1 | active: 44.1% |
| Cc1ccc(NC(=O)C2CCN(c3nn4c(=O)cc(C)nc4s3)CC2)cc1 | 3.99% |
| O=C(/C=C/c1ccco1)Nc1ccc(Cl)c(-c2nc3cc(Cl)ccc3o2)c1 | 1.02% |
| Cc1ccc(-c2nnc(Nc3ccc(O)cc3)c3ccccc23)cc1S(=O)(=O)NCC1CCCO1 (centres undefined) | -2.36% |
| O=C1Nc2cc(Cl)ccc2Oc2cc(Oc3ccccc3)ccc21 | -10.1% |
| COc1ccc(Cn2ccc3nc(C)c(C(=O)Nc4ccc(OC)cc4OC)cc3c2=O)cc1 | -1.53% |
| Cc1cc(C)c(S(=O)(=O)Nc2cccc(-c3cn4ccccc4n3)c2)c(C)c1 | 3.79% |
| Cc1ccc(NC(=O)Cn2c(=O)n(CCc3ccccc3)c(=O)c3c4c(sc32)CCCC4)cc1C | -26.9% |
| Cc1ccc(C)c(CN2C(=O)c3ccccc3S(=O)c3ccc(C(=O)NCc4ccco4)cc32)c1 (centres undefined) | -3.41% |

| Compound | inhibition |
| --- | --- |
| Cc1ccc(NC(=O)Cn2cc(S(=O)(=O)NC(C)C)c(S(=O)(=O)NC(C)C)c2)cc1Cl | -0.55% |
| COc1ccc(N(C(=O)COc2ccc(Br)cc2)S(=O)(=O)c2ccc(C)cc2)cc1 | -7.89% |
| Cc1ccc(NC(=O)CCc2c(C)nn(-c3ccc(N4CCOCC4)nn3)c2C)cc1F | 15.1% |
| O=C(OCc1ccccc1Cl)c1ccc(-c2nnn(Cc3ccccc3Cl)n2)cc1 | -2.63% |
| CCOC(=O)c1c(S(=O)(=O)N2CCCC(C(=O)Nc3ncccc3C)C2)c(C)n(C)c1C (centres undefined) | -6.06% |
| COc1ccc(CCCc2nnc(SCC(=O)Nc3ccccc3F)o2)cc1C | 16.4% |
| COc1cc(C(=O)NCc2ccc(OCCN(C)C)cc2)cc(OC)c1OC | active: 72.2% |
| Cc1ccc(-n2ncc3c(N(CCO)Cc4ccccc4)ncnc32)cc1 | 20.8% |
| COc1cccc(N(Cc2nnc3n2CCCCC3)C(=O)Nc2cccc(Cl)c2)c1 | -3.07% |
| CCOCCCNC(=O)CN1C(=O)c2c(c3ccccc3n2C)C1c1ccc(OC)cc1 (centres undefined) | 7.01% |
| O=C(Cc1csc2nc(-c3ccccc3)cn12)NCc1ccc(F)cc1 | -8.63% |
| CCOc1ccccc1NC(=O)N1CCCn2nc(C)cc21 | 4.54% |
| Cc1c(OCC(=O)N[C@@H](CSCc2ccccc2)C(=O)O)ccc2c3c(c(=O)oc12)CCC3 | active: 30.7% |
| Cc1ccc(CNC(=O)Cn2c(=O)n(-c3ccccc3)c(=O)c3c2c2cc(C)ccc2n3C)cc1 | -8.11% |
| CCCCN(C)CCNC(=O)Cn1ncc2c([nH]c3ccccc32)c1=O | 12.3% |
| Cc1ccc(NC(=O)CCSc2nc(-c3ccc4c(c3)OCO4)cc(C(F)(F)F)n2)cc1 | 1.06% |
| COc1ccc(C2/C(=C(/O)c3ccc(S(=O)(=O)N4CCOCC4)cc3)C(=O)C(=O)N2CCN2CCOCC2)cc1 (centres undefined) | active: 40.1% |
| CCOC(=O)CCN(c1ccccc1)S(=O)(=O)c1ccc2[nH]c(=O)ccc2c1 | -0.281% |
| O=C(O)CCc1ccc(-c2ccccc2)n1-c1cccc(Br)c1 | 4.86% |
| COc1cc(/C=C/c2nc(C#N)c(NC(C)c3ccccc3)o2)cc(OC)c1OC (centres undefined) | 9.6% |

| Compound | inhibition |
| --- | --- |
| CN(Cc1ccccc1)C(=O)c1cc2c(s1)-c1ccc(Cl)cc1SC2 | -3.29% |
| O=C(CCCCn1c(=O)c2ccccc2n(CC(=O)Nc2cccc(F)c2)c1=O)NCc1ccccc1Cl | -3.55% |
| CCOc1ccc(CNC(=O)Cn2c(=O)c3cccn3c3ccc(F)cc32)cc1OC | 18.1% |
| Clc1ccc(CCNC(c2cccc(Cl)c2)c2nnc(-c3ccccc3)o2)cc1 (centres undefined) | 11.4% |
| Cn1cc(S(=O)(=O)N2CCCCCC2)cc1C(=O)N1CCN(c2ccc(Cl)cc2)CC1 | -19.3% |
| CCOC(=O)c1cc(-c2ccccc2)n(CCCC(=O)Nc2ccc(C)c(C)c2)c1C | 24.4% |
| Cn1c(=O)c2c(ncn2CC(=O)Nc2cc(Cl)cc(Cl)c2)n(C)c1=O | -2.55% |
| Cc1nn(C)c2c1c(C(F)(F)F)cc(=O)n2C(C)C(=O)N1CCN(c2ccccc2)CC1 (centres undefined) | 9.74% |
| CCOC(=O)c1c(C)oc2ncnc(N3CCN(c4cccc(Cl)c4)CC3)c12 | 8.4% |
| CCOC(=O)c1c(C)[nH]c(C)c1S(=O)(=O)N1CCN(c2ccccc2OC)CC1 | -3.19% |
| CC1=C(C(=O)Nc2ccccc2)C(c2ccccc2Cl)n2ncc(C(=O)Nc3cccc(C)c3)c2N1 (centres undefined) | 3.01% |
| COc1ccc(Cl)cc1NC(=O)CSc1nc2ccccc2nc1N1CCCCC1 | 5.44% |
| COc1ccc(CCC(=O)NCc2nc3cccnc3n2Cc2ccc(OC)cc2)cc1 | 20.2% |
| CCOC(=O)c1c(NC(=O)CS(=O)(=O)c2ccc(Cl)cc2)sc2c1CCCC2 | -1.89% |
| Cc1ccc(C)c(NC(=O)Cn2nnc(C(=O)NCc3ccco3)c2N)c1 | 15.3% |
| CNC(=O)C1CCN(C(=O)N2CC(C)Oc3ccc(C)cc32)CC1 (centres undefined) | -23% |
| COc1ccc(-c2cc(C(=O)OCC(=O)c3cccc(OC)c3)c3cccc(Cl)c3n2)cc1 | -3.83% |
| COc1ccc(NC(=O)C2CCN(c3nc(-c4ccc(OC)c(OC)c4)no3)CC2)cc1Cl | 7.42% |
| Cc1ccccc1CNC(=O)C1CCCN(c2nnc(-n3c(C)ccc3C)s2)C1 (centres undefined) | -1.67% |
